Biological target: T1, HCoV-OC43 Nucleocapsid (N) protein (2X-StrepTag tagged) (HCoV-OC43, UniProt P33469 1-448)
T1 construct: also called rN; HCoV-OC43 rN; source: HEK293-FT, transfected, in crude lysate; not shown: 2X-StrepTag, C-terminal, kept
T1 sequence: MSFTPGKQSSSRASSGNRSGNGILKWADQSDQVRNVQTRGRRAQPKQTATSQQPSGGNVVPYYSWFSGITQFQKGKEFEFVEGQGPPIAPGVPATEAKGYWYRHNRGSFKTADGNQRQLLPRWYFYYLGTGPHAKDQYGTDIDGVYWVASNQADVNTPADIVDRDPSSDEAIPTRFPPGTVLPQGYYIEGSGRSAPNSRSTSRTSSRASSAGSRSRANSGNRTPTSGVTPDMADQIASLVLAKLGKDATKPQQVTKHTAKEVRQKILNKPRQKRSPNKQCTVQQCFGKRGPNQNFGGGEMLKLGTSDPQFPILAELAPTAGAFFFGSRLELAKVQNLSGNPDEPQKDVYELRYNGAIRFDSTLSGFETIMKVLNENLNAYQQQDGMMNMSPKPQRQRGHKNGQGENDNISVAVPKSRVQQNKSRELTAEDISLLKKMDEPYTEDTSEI
Assay: BLI
Conditions: one partner purified

B1: CCL20 (ligand)
chain: not shown
notes: recombinant human CCL20; source: bought: PeproTech
B1 was tested, and the Kd was 1.8 µM, the koff was 0.017 s⁻¹ and the kon was 18000 M⁻¹ s⁻¹.
